Experimental data reported in PubChem BioAssay AID1461 (National Center for Advancing Translational Sciences (NCATS), 2008).
Screen size: about 220,000 compounds; about 2,300 (1%) were called active. Not shown: some 6% with an inconclusive outcome. The call rests on the fitted dose curve; in most records, active means well fitted inhibition curve with a large enough effect; inconclusive means small, poorly fitted or top-dose-only effect, or effect the other way; inactive means no such curve, though single readings can be large or run the other way. The entries are a selection whose mix differs from that of the whole data set. More than one record can exist for a structure, and the calls need not agree.

Target: Neuropeptide S receptor (Homo sapiens) (UniProt Q6W5P4)
Assay: qHTS Assay for Antagonists of the Neuropeptide S Receptor: cAMP Signal Transduction; further: nearly all actives have a fitted effect of over 50% in size
Conditions: CHO-NPSR cells, cAMP TR-FRET, antagonist mode; series mostly up to 38.3 µM; activity change, negative = inhibition: at the top concentration
Excerpt: NIH Chemical Genomics Center [NCGC] NIH Molecular Libraries Probe Production centers Network [MLPCN] MLPCN Grant: X01-DA026210-01 Assay Submitter (PI): Heilig, Markus Alexander NCGC Assay Overview: Neuropeptide S receptor (NPSR), previously known as GPR154, is a recently de-orphanized G protein coupled receptor. Its endogenous ligand is the 20 amino acids peptide Neuropeptide S (NPS). […] NPS and its receptor are found in various tissues. Specifically they are highly expressed in brain areas that have been implicated in modulation of arousal, stress and anxiety. Central administration of NPS in mice produces an unusual profile of activity by inducing wakefulness and arousal, while at the same time suppressing anxiety. Therefore, NPSR may represent a novel drug target for the treatment of sleep and anxiety disorders. To identify NPSR antagonists, we developed a cell-based cAMP assay. NPS can stimulate the production of cAMP in Chinese hamster ovary cells stably expressing NPS receptor. This change in intracellular cAMP level can be detected by a homogeneous LANCE cAMP assay based on the TR-FRET (time resolved fluorescence resonance energy transfer) between a europium-labeled cAMP tracer complex and a cAMP-specific antibody labeled with Alexa Fluor 647. The europium-labeled cAMP tracer complex is formed by the tight interaction between Biotin-cAMP (b-cAMP) and streptavidin labeled with Europium-W8044 chelate (Eu-SA). Light pulse at 320 nm excites the europium of the cAMP tracer and the energy emitted is transferred to the Alexa molecule bound to the cAMP antibody, generating a TR-FRET signal at 665 nm. Residual energy from the europium will produce a light at 620 nm. The native unlabeled cAMP from cell lysates competes with the europium-cAMP tracer for antibody binding and reversely reduces the emission signal of Alexa by interrupting FRET between the two labeled molecules. Both emission signals from the FRET donor (620 nm) and the acceptor (665 nm) can be detected by a plate reader in the TRF mode. Expression of result in fluorescence ratio (665 nm/620 nm) helps to normalize differences due to cell density and reagent dispensing. This assay was successfully optimized to a 1536-well plate format.
NCGC Assay Protocol Summary: A Chinese hamster ovary (CHO) cell line stably expressing the NPS receptor (CHO-NPSR) was obtained from Dr. Heilig lab at NIAAA and maintained in F-12 Kaighn's media (Invitrogen, Carlsbad, CA, 21127) supplemented with 10 % FBS, 100 units/ml penicillin, 100 ug/ml streptomycin and 250 ug/ml geneticin at 37C, 5% CO2 in a humidified atmosphere. Before the assay, aliquots of cells were frozen and stored at -135C. The assay was performed in 1536-well format. Data are reported for both the ratio of the two emission wavelengths, and also for the component 'donor' channel, Em2=620. Data were normalized to the controls for basal activity (DMSO only) and 100% inhibition (No NPS control). IC50 values were determined from concentration-response data modeled with the standard Hill equation. NPS 1536-well assay protocol: (1) Fresh or frozen CHO-NPSR cells were suspended in F-12 Kaighn's media supplemented with 10 % FBS, 100 units/ml penicillin and 100 ug/ml streptomycin. Cells were plated at 4 ul/well (1200 cells) to white, tissue culture treated 1536-well plates, and then cultured at 37C, 5 % CO2 for 16 to 30 hours. (2) Add 23 nl/well of compound in DMSO solution. The final titration for each compound was between 0.6 nM and 46 uM. (3) Add 1 ul of stimulation reagent (1X HBSS buffer, 5 mM HEPES, 0.1% BSA, 500 uM RO-201724 (Sigma-Aldrich, B8279), 1.5% Alexa 647-labeled anti-cAMP antibody (from Perkin Elmer), 100 nM NPS) (4) Incubation at 37C, 5 % CO2 for 60 min. (5) Add 1 ul/well detection reagent. Detection reagent was prepared by adding biotin labeled cAMP (4%), streptavidin labeled with Europium-W8044 chelate (1.33%) and TritonX-100 (1%) to detection buffer. […]
On the % scale 0 is the no-effect control and ±100 the full control effect; potency means the concentration at half of the fitted maximal effect.

Chain of UniProt Q6W5P4 (Q6W5P4 whole entry, looked up): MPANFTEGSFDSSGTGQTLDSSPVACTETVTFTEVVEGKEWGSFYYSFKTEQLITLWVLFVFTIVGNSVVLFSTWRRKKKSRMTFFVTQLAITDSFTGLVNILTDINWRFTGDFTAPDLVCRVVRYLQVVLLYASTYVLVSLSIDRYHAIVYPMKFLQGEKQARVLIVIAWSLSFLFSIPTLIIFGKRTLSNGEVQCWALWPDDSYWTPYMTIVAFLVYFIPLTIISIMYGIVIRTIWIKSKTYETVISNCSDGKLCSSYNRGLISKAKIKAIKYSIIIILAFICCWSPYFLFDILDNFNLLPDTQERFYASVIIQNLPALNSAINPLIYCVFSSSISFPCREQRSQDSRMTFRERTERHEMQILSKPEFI

Activity change, negative = inhibition, inactive:
CCO[C@@H]1OC(C(=O)N2CCN(Cc3ccccc3)CC2)=C[C@H](c2cn(C(C)=O)c3ccccc23)[C@H]1CCCO 40.9%
CCO[C@@H]1OC(C(=O)N2CCN(Cc3ccc4c(c3)OCO4)CC2)=C[C@H](c2cn(C(C)=O)c3ccccc23)[C@H]1CCCO 46%
CCCNC(=O)NS(=O)(=O)c1ccc(Cl)cc1 5.58%
O=C(c1ccc(F)cc1)C1CCN(CCn2c(=O)[nH]c3ccccc3c2=O)CC1 -11.4%
O=C(C1=C[C@@H](c2ccc(Br)cc2)C[C@@H](OCCCCO)O1)N1CCN(Cc2ccccc2)CC1 45.6%
CCN(CC)c1ccc(/C=C2/SC(=O)N(C(C)C)C2=O)o1 -43.2%
CN1CCN(C(=O)C2=C[C@@H](c3coc4ccccc4c3=O)C[C@@H](OCc3ccc(CO)cc3)O2)CC1 6.18%
Cc1ccsc1/C=C1/SC(N2CCOCC2)=NC1=O -15.5%
O=C(NCC1CCCCN1)c1cc(OCC(F)(F)F)ccc1OCC(F)(F)F (configuration not stated) -1.48%
O=C1/C(=C\c2cccs2)N=C(c2cccs2)N1Nc1ccccc1 -3.08% [at 46.1 µM]
O=C(O)c1cc(-c2ccco2)nc2ccc(Br)cc12 4.87% [at 46.1 µM]
COc1ccc(C2Nc3ccccc3C(=O)N2Cc2ccco2)cc1CN1C(=O)c2ccccc2C1=O (configuration not stated) -33.7%
C#Cc1ccc([C@@H]2C=C(C(=O)NCc3ccccc3)O[C@H](OCC)[C@H]2CCCO)cc1 1.77%
O=C1S/C(=C/c2ccc(N3CCOCC3)o2)C(=O)N1Cc1ccc(F)cc1 -18.3% [at 46.1 µM]
CO/N=C(\C(=O)N[C@@H]1C(=O)N2C(C(=O)O)=C(COC(C)=O)CS[C@H]12)c1csc(N)n1 (stereo in doubt) 42.1%
C=CCOC(=O)C1=C[C@@H](c2ccc(C(F)(F)F)cc2)[C@H](CCCO)[C@@H](OCC)O1 42.2%
CCN1/C(=C/C(C)=O)Sc2ccc(OC)cc21 -22.4% [at 46.1 µM]
CC[C@]1(O)C[C@@H]2CN(CCc3c([nH]c4ccccc34)[C@@](C(=O)OC)(c3cc4c(cc3OC)N(C)[C@H]3[C@@](O)(C(=O)OC)[C@H](OC(C)=O)[C@]5(CC)C=CCN6CC[C@]43[C@@H]65)C2)C1 21.5%
CCO[C@H]1OC(C(=O)Nc2ccccc2)=C[C@@H](c2coc3ccccc3c2=O)[C@@H]1CCCO 40.7%
O=C(C1=C[C@H](c2ccccc2)C[C@H](OCc2ccc(CO)cc2)O1)N1CCCCCCC1 32.7%
CN=C1S/C(=C\c2cn(CC(=O)OC)c3ccccc23)C(=O)N1C -23.8%
CC(C)C[C@H](NC(=O)[C@H](O)[C@H](N)Cc1ccccc1)C(=O)O -0.944% [at 46.1 µM]
C(=C\c1ccccc1)/CN1CCN(C(c2ccccc2)c2ccccc2)CC1 24.7% [at 46.1 µM]
O=C(C1CCCCC1)N1CC(=O)N2CCc3ccccc3C2C1 (configuration not stated) -12.4%
O=C(/C=C\c1ccccc1)Oc1cccc2cccnc12 -37.1%
COc1ccc2c(c1)c(CC(=O)O)c(C)n2C(=O)c1ccc(Cl)cc1 -38.7%
NC1=NC[C@H](Cc2ccc(O)cc2)N1CCCCC1CCCCC1 -50.3%
CCCc1c(-c2ccc(O)cc2)nn(-c2ccc(O)cc2)c1-c1ccc(O)cc1 -44.3%
O=C(C1=C[C@@H](c2coc3ccccc3c2=O)C[C@@H](OCc2ccc(CO)cc2)O1)N1CCN(Cc2ccccc2)CC1 50.7%
Cc1ccccc1/C=C\c1nc2ccccc2c(=O)[nH]1 -50.3%
NCCCC(=O)O 19.9%
Cn1c(=O)c2[nH]c(-c3ccccc3)nc2n(C)c1=O 1.49%
NC/C=C/C(=O)O 1.97% [at 46.1 µM]
CCO/C([O-])=N/c1c[n+](N2CCOCC2)no1 2.12%
COc1ccc(C2C(C#N)C(C#N)N3CCCN23)cc1 (configuration not stated) -12.8% [at 46.1 µM]
Clc1ccc(Cn2c(CN3CCCC3)nc3ccccc32)cc1 -44.6%

Potency, inactive:
CC(C(O)c1ccc(O)cc1)N1CCC(Cc2ccccc2)CC1 (configuration not stated)
CN(C)CCC(c1ccc(Cl)cc1)c1ccccn1 (configuration not stated)
COCCOC(=O)C1=C(C)NC(C)=C(C(=O)OC(C)C)C1c1cccc([N+](=O)[O-])c1 (configuration not stated)
CNC[C@H](O)c1ccc(O)c(O)c1
COc1ccc(/C=C/C(=O)Nc2ccccc2C(=O)O)cc1OC

Potency, active:
Cc1cc(C)c2c3c(sc2n1)C(c1ccccc1)C(C#N)=C(N)O3 (configuration not stated) 10 µM
COc1ccc(/C=C2\N=C(c3ccccc3)N(c3ccc(C(=O)O)cc3)C2=O)cc1OC 12.6 µM
COc1ccc(CN2C(=O)/C(=C/c3ccc(-c4ccc(Cl)c(C(=O)O)c4)o3)SC2=S)cc1 6.31 µM
CN(C1=C(N2CCCCC2)C(=O)c2ccccc2C1=O)c1ccccc1 12.6 µM
CCOC(=O)N=Nc1c2ccccc2c2nc3no[nH]c3nc12 6.31 µM
COc1ccc(NC(=O)/C(Cl)=C(/Cl)S(=O)Cc2ccccc2)cn1 (configuration not stated) 1.26 µM
